# Measured values: a collection of fitness landscapes (doi:10.1126/science.1257360)
# The other results are listed elsewhere or left out.
# B1: PhoQ; a variant is named by its letters at X, in order, P23837 (parent)
# chain: MKKLLRLFFPLSLRVRFLLATAAVVLVLSLAYGMVALIGYSVSFDKTTFRLLRGESNLFYTLAKWENNKLHVELPENIDKQSPTMTLIYDENGQLLWAQRDVPWLMKMIQPDWLKSNGFHEIEADVNDTSLLLSGDHSIQQQLQEVREDDDDAEMTHSVAVNVYPATSRMPKLTIVVVDTIPVELKSSYMVWSWFIYVLSANLLLVIPLLWVAAWWSLRPIEALAKEVRELEEHNRELLNPATTRELTSLVRNLNRLLKSERERYDKYRTTLTDLTHSLKTPLXXLQXXLRSLRSEKMSVSDAEPVMLEQISRISQQIGYYLHRASMRGGTLLSRELHPVAPLLDNLTSALNKVYQRKGVNISLDISPEISFVGEQNDFVEVMGNVLDNACKYCLEFVEISARQTDEHLYIVVEDDGPGIPLSKREVIFDRGQRVDTLRPGQGVGLAVAREITEQYEGKIVAGESMLGGARMEVIFGRQHSAPKDE
# Variants of: B1
# Assay: enrichment ratio after two sorts for PhoP signalling (ratio (wild type AVST 3.29)); higher = more functional
# Conditions: with PhoP (E. coli)
row,Variant,enrichment ratio
1,TNQM,14.3
2,YPWC,≤ 0.25
3,PVGP,≤ 0.25
4,GKWT,≤ 0.25
5,EIAY,≤ 0.25
6,YNHG,≤ 0.25
7,LKCM,≤ 0.25
8,KMKP,≤ 0.25
9,QCCQ,≤ 0.25
10,YPGI,≤ 0.25
11,CPSD,≤ 0.25
12,FSFK,0.842
13,IYIL,≤ 0.25
14,DVYY,≤ 0.25
15,PHIN,≤ 0.25
16,GFQV,≤ 0.25
17,FRDR,≤ 0.25
18,NYND,≤ 0.25
19,SQCN,10.1
20,WHPA,≤ 0.25
21,QYVG,≤ 0.25
22,SILP,≤ 0.25
23,AWIL,≤ 0.25
24,HCMG,≤ 0.25

row,Variant,enrichment ratio
1,PENC,≤ 0.25
2,FPGA,≤ 0.25
3,LHCQ,≤ 0.25
4,SYCW,≤ 0.25
5,DGDK,≤ 0.25
6,ACEY,≤ 0.25
7,MYCR,≤ 0.25
8,PPPM,≤ 0.25
9,RKNV,≤ 0.25
10,PYQH,≤ 0.25
11,SQQV,3.29
12,RCID,≤ 0.25
13,YRLC,≤ 0.25
14,NGTR,≤ 0.25
15,RYLR,≤ 0.25
16,ARSS,0.56
17,SYHH,0.299
18,SYIA,≤ 0.25
19,IPMP,≤ 0.25
20,TWDD,≤ 0.25
21,EKSQ,≤ 0.25
22,RWSS,≤ 0.25
23,WKIK,≤ 0.25
24,WFLN,≤ 0.25

row,Variant,enrichment ratio
1,KFMF,≤ 0.25
2,TVHN,5.01
3,GYSP,≤ 0.25
4,VHPM,≤ 0.25
5,HCYP,≤ 0.25
6,WIPL,≤ 0.25
7,VSEG,≤ 0.25
8,LKKH,≤ 0.25
9,MTWS,≤ 0.25
10,SPVF,≤ 0.25
11,WGLG,≤ 0.25
12,AMRR,≤ 0.25
13,HCWF,≤ 0.25
14,IKFY,≤ 0.25
15,KGCS,≤ 0.25
16,GKLI,0.717
17,RCHN,≤ 0.25
18,AQVN,0.509
19,MRHF,≤ 0.25
20,YGHQ,≤ 0.25
21,VDLM,≤ 0.25
22,ATML,11.3
23,MEGR,≤ 0.25
24,FANA,≤ 0.25

row,Variant,enrichment ratio
1,IRPE,≤ 0.25
2,WTPC,≤ 0.25
3,TNNV,13.4
4,IKPF,≤ 0.25
5,WTYA,≤ 0.25
6,HNRA,≤ 0.25
7,LTRQ,≤ 0.25
8,TGYR,≤ 0.25
9,QAWY,4.75
10,LWDC,≤ 0.25
11,YYET,≤ 0.25
12,VMSL,≤ 0.25
13,ASPD,≤ 0.25
14,WKHM,≤ 0.25
15,DVPF,≤ 0.25
16,NVIM,≤ 0.25
17,GSLS,11.8
18,DVKK,≤ 0.25
19,DQYK,≤ 0.25
20,SKFE,≤ 0.25
21,MKVA,≤ 0.25
22,LYKY,≤ 0.25
23,HFAS,≤ 0.25
24,SDFE,≤ 0.25

row,Variant,enrichment ratio
1,AFNP,≤ 0.25
2,FRMK,≤ 0.25
3,FSNW,≤ 0.25
4,KLSW,≤ 0.25
5,KMMY,≤ 0.25
6,FGRM,≤ 0.25
7,SWLL,≤ 0.25
8,DGYI,≤ 0.25
9,QYKF,≤ 0.25
10,YDGG,≤ 0.25
11,HPIY,≤ 0.25
12,IFVL,≤ 0.25
13,QYFC,≤ 0.25
14,TAIA,3.27
15,FSIK,≤ 0.25
16,AWWT,≤ 0.25
17,LNDT,≤ 0.25
18,YTDP,≤ 0.25
19,KTVI,≤ 0.25
20,SGKT,≤ 0.25
21,SPWD,≤ 0.25
22,MNHY,≤ 0.25
23,IMMR,≤ 0.25
24,SWIF,≤ 0.25

row,Variant,enrichment ratio
1,WISV,≤ 0.25
2,KFEY,≤ 0.25
3,IFWI,≤ 0.25
4,DNQV,9.55
5,DSME,≤ 0.25
6,NEVK,≤ 0.25
7,QFLK,≤ 0.25
8,FCPE,≤ 0.25
9,DLAN,≤ 0.25
10,VQWF,≤ 0.25
11,WRPW,≤ 0.25
12,HHGD,≤ 0.25
13,YSWN,≤ 0.25
14,GKSM,≤ 0.25
15,PPVD,≤ 0.25
16,WPHG,≤ 0.25
17,MKCH,≤ 0.25
18,TVAW,2.61
19,IETP,≤ 0.25
20,VGEQ,≤ 0.25
21,YNLK,≤ 0.25
22,LLKG,≤ 0.25
23,NFQW,≤ 0.25
24,QREC,≤ 0.25

row,Variant,enrichment ratio
1,GMTI,10.1
2,YEDS,≤ 0.25
3,DSDI,≤ 0.25
4,IHPI,≤ 0.25
5,LSDW,≤ 0.25
6,PTGA,≤ 0.25
7,MGRV,≤ 0.25
8,QQWY,2.25
9,HLYE,≤ 0.25
10,PGHY,≤ 0.25
11,SKLW,≤ 0.25
12,HLWH,≤ 0.25
13,WDDA,≤ 0.25
14,FWTS,≤ 0.25
15,FIMF,0.618
16,GNYE,≤ 0.25
17,SGPC,≤ 0.25
18,KYRI,≤ 0.25
19,WMVC,≤ 0.25
20,HFEG,≤ 0.25
21,GVLV,9.75
22,PFQR,≤ 0.25
23,RIKR,≤ 0.25
24,ILWW,≤ 0.25

row,Variant,enrichment ratio
1,KSRE,≤ 0.25
2,YGEH,≤ 0.25
3,QYLM,≤ 0.25
4,SDAA,≤ 0.25
5,QIAS,≤ 0.25
6,RPQQ,≤ 0.25
7,WHKH,≤ 0.25
8,RCCH,≤ 0.25
9,KTYG,≤ 0.25
10,MYTH,≤ 0.25
11,TYSS,6.48
12,PRFM,≤ 0.25
13,DHYH,≤ 0.25
14,EFRL,≤ 0.25
15,ENDS,≤ 0.25
16,ANGW,11.4
17,VCGS,≤ 0.25
18,TWVH,≤ 0.25
19,WLYR,≤ 0.25
20,HKTH,≤ 0.25
21,VLGM,≤ 0.25
22,KDSA,≤ 0.25
23,INQE,≤ 0.25
24,AVPR,≤ 0.25

row,Variant,enrichment ratio
1,LWSH,≤ 0.25
2,PWGA,≤ 0.25
3,GYLF,≤ 0.25
4,IVDL,≤ 0.25
5,MYWK,≤ 0.25
6,HIYK,≤ 0.25
7,QIGS,4.23
8,YTQI,≤ 0.25
9,PKSM,≤ 0.25
10,KMPT,≤ 0.25
11,FVRM,≤ 0.25
12,SPWG,≤ 0.25
13,IPEV,≤ 0.25
14,SKMG,3.1
15,FPGH,≤ 0.25
16,LEIK,≤ 0.25
17,GKGS,≤ 0.25
18,FLTN,≤ 0.25
19,QSAI,7.95
20,EPLP,≤ 0.25
21,YLIE,≤ 0.25
22,NLVH,≤ 0.25
23,IKPM,≤ 0.25
24,LVTI,≤ 0.25

row,Variant,enrichment ratio
1,YVKH,≤ 0.25
2,LHMV,≤ 0.25
3,GLGK,≤ 0.25
4,SKMR,≤ 0.25
5,PQNN,≤ 0.25
6,MYSP,≤ 0.25
7,FRNW,≤ 0.25
8,LYCN,≤ 0.25
9,HYWQ,≤ 0.25
10,EMYS,≤ 0.25
11,PYPT,≤ 0.25
12,QQML,≤ 0.25
13,VVVR,≤ 0.25
14,HTEL,≤ 0.25
15,DYFS,≤ 0.25
16,VWCS,≤ 0.25
17,NWVV,≤ 0.25
18,LDRL,≤ 0.25
19,DDHV,≤ 0.25
20,QIPN,≤ 0.25
21,QEGP,≤ 0.25
22,ALMM,4.65
23,NWEI,≤ 0.25
24,HMWT,≤ 0.25

row,Variant,enrichment ratio
1,GQVI,≤ 0.25
2,NMTK,≤ 0.25
3,QHHN,≤ 0.25
4,RRNP,≤ 0.25
5,AGTL,11
6,KMKL,≤ 0.25
7,KKEG,≤ 0.25
8,ALCG,4.5
9,GYGR,≤ 0.25
10,NRGI,≤ 0.25
11,LAHN,≤ 0.25
12,DGSI,≤ 0.25
13,HTDD,≤ 0.25
14,IFGL,≤ 0.25
15,HWQF,≤ 0.25
16,KHKT,≤ 0.25
17,WCLH,≤ 0.25
18,NPQL,≤ 0.25
19,APPH,≤ 0.25
20,HQCF,≤ 0.25
21,YEAQ,≤ 0.25
22,KNEF,≤ 0.25
23,EMSI,≤ 0.25
24,MHIT,≤ 0.25

row,Variant,enrichment ratio
1,SINS,10.5
2,DPIV,≤ 0.25
3,IRHW,≤ 0.25
4,EAHS,≤ 0.25
5,YWMN,≤ 0.25
6,HKGD,≤ 0.25
7,QDAM,≤ 0.25
8,MHIV,≤ 0.25
9,SCEA,≤ 0.25
10,SLQI,5.02
11,NNIE,≤ 0.25
12,KDNV,≤ 0.25
13,SMAH,6.85
14,MYNT,≤ 0.25
15,VDCI,≤ 0.25
16,FMMW,≤ 0.25
17,RMGC,≤ 0.25
18,MQWA,≤ 0.25
19,TQFY,2.58
20,PKRS,0.391
21,VDPF,≤ 0.25
22,TFCA,0.663
23,PMAP,≤ 0.25
24,YKMC,≤ 0.25

row,Variant,enrichment ratio
1,WGAH,≤ 0.25
2,HWPF,≤ 0.25
3,GDPH,≤ 0.25
4,MAMP,≤ 0.25
5,IIGE,≤ 0.25
6,QRLK,≤ 0.25
7,FLGL,≤ 0.25
8,LDLP,≤ 0.25
9,IWFS,≤ 0.25
10,FILV,3.23
11,SEMY,5.04
12,KYYV,≤ 0.25
13,FNKF,≤ 0.25
14,PIEI,≤ 0.25
15,TDNL,≤ 0.25
16,RFEK,≤ 0.25
17,GGPV,≤ 0.25
18,KNLS,≤ 0.25
